Results: publication PMC6919601, “Identification of Plasmodium dipeptidyl aminopeptidase allosteric inhibitors by high throughput screening” (PLoS ONE, 2019)
Hit rate of the full screen: of about 110,000 compounds, about 230 (0.21%) showed an effect of 50% or more. The list shows a part of the results.

The compounds below were run against DPAP1 (Plasmodium falciparum, UniProt Q8IIJ9) (assay: primary screen, percent inhibition; read by cleavage of a fluorogenic dipeptide substrate; higher = more effect of the substance).
Chain of DPAP1 (Q8IIJ9 whole entry, looked up): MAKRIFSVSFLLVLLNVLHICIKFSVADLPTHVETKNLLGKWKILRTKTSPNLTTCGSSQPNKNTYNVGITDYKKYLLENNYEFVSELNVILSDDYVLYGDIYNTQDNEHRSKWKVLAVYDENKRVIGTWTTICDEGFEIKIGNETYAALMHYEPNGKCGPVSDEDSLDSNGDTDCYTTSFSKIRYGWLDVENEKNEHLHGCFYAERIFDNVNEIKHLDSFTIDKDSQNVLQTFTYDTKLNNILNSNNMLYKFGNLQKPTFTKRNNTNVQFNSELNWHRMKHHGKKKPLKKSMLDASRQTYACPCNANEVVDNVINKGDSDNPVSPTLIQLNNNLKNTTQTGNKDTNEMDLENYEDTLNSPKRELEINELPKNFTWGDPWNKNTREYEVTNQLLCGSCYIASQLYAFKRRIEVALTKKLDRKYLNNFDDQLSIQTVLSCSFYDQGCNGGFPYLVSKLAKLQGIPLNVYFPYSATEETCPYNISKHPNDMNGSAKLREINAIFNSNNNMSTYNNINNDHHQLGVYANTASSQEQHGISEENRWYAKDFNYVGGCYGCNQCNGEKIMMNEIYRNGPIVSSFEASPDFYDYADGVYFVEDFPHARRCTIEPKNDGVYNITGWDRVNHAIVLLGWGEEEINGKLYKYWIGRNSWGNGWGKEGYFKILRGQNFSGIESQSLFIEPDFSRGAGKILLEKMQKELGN
Design: species or system P. falciparum D10 trophozoite lysates; single well
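Note: 30 min substrate incubation versus DMSO and 10 µM JCP410 controls.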

Structure (SMILES)	% Inhibition @ 10 uM [%]
CC1CCCN(C(=O)Cn2c(-c3nonc3N)nc3ccccc32)C1 (centres unmarked)	-2.68
Cc1c(C)c2c(cc(C)c3c(C(C)(C)C)coc32)oc1=O	-1.37
Cc1nc2cc(-c3ccccc3)nn2c(C)c1CCC(=O)N1CCOCC1	4.34
N#CC1=C(N)OC2=C(C(=O)CC(c3ccccc3)C2)C1c1ccc(F)c(Br)c1 (centres unmarked)	15.7
O=[N+]([O-])CCc1cc2ccccc2[nH]1	-2.32
O=C1c2ccccc2C(=O)N1c1ccc(OC(F)(F)F)cc1	2.91
CCCNC(=O)c1c(C)c(C(=O)OCC)n(C)c1C	-3.44
COc1ccc(N2C(=O)c3cccc4cccc(c34)C2=O)cc1OC	0.727
CCc1ccc(C2C(C#N)=C(N)OC3=C2C(=O)CCC3)cc1 (centres unmarked)	-4.94
CC(C)c1ccc(-c2c(NCc3cccs3)c(=O)c2=O)cc1	-0.539
O=C(CCc1ccc(S(=O)(=O)NC2CCCCC2)cc1)NCC1CCCO1 (centres unmarked)	3.53
CCCNC(=O)c1nc(-c2ccc(Cl)cc2)n2c1CCCCC2	0.453
COCCN1C(=O)c2ccccc2C(C(=O)NCc2ccc(F)cc2)C1c1ccc(F)cc1 (centres unmarked)	7.29
Cc1cc(NC(=O)c2cc(-c3ccc(Cl)s3)nc3ccccc23)no1	-4.77
CCCC[C@H](NC(=O)[C@H](Cc1ccccc1)NC(=O)N1CCOCC1)C(=O)c1nc2ccccc2o1	-1.83
Cc1cc(C)c(C(=O)c2ccc(C(=O)Nc3ccc(N(C)C)cc3)cc2)c(C)c1	2.76
COc1cccc(C(=O)Cn2c(Br)nc3c2c(=O)n(C)c(=O)n3C)c1	-2.83
CC1C2C(c3ccccc3)N(C)C(=O)N(C)C2N(C)C(=O)N1C (centres unmarked)	1.87
Nc1sc2c(c1C(=O)Nc1cccc(C(F)(F)F)c1)CCCC2	8.03
O=C(Nc1ccccc1)Nc1ccc(Nc2ccccc2)cc1	-4.71
C1=CC2CC1CC2CN1CCN(C/C=C/c2ccccc2)CC1 (centres unmarked)	1.9
CC1(C(=O)Nc2ncc(Cc3cccc(C(F)(F)F)c3)s2)Cc2ccccc2C(=O)O1 (centres unmarked)	0.953
Cc1nc(-c2ccccc2)nc2c1CCCC2	-1.86
Cc1cccc(C(=O)Nc2nnc(/C=C/c3ccccc3)s2)c1	-4.24
C/C(Cl)=C/CSc1nc2c(c(=O)[nH]c(=O)n2C)n1Cc1ccccc1Cl	2.36

Structure (SMILES)	% Inhibition @ 10 uM [%]
CC(=O)Nc1ccc(S(=O)(=O)N2CCC(C(N)=O)CC2)cc1	-4.21
C=CCc1ccc(OCC(=O)O)c(OC)c1	3.47
O=C(c1ccc(CSc2nc3ccncc3n2Cc2cccc(F)c2)cc1)N1CCCC1	-2.37
O=C(COc1ccc(Br)cc1)N(Cc1ccccc1)Cc1ccccc1	17.4
CCn1c(C)nc2cc(S(=O)(=O)NC)ccc21	1.29
CC(=O)c1c(NC(=O)C(C)C)nc(C)nc1-c1ccccc1	-5.46
O=C(c1ccc(-c2ccccc2)cc1)N1CCN(Cc2ccccc2)CC1	-10.8
COc1ccccc1N1CCN(C(=O)N[C@@H](CC(C)C)C(=O)NCC#N)CC1	-5.2
CCc1nnc(NC(=O)CSc2nc3c(c(=O)n2Cc2ccccc2)SCC3)s1	1.66
CSc1nc2nc(O)cc(O)c2s1	1.76
C=CCN1C(=O)N/C(=C/c2ccc(OC(C)C)cc2)C1=O	-5.04
CCOC(=O)c1nc(-c2cc[n+](C)cc2)no1	4.33
c1ccc(CNCC2OCCc3ccccc32)cc1 (centres unmarked)	-6.01
CC1=CSC2=NC(=O)/C(=C\c3cccn3-c3nnc(-c4ccccc4)s3)C(=N)N12	0.208
O=S(=O)(Nc1nc2ccccc2s1)c1ccccc1	-5.33
Cc1cccc(N2CCN(Cc3cc([N+](=O)[O-])ccc3Cl)CC2)c1C	-5.57
CC(C)CC(C(=O)NCC#N)c1cccc(-c2ccc(O)c(-c3ccno3)c2)c1 (centres unmarked)	3.19
COc1ccc(C2C(C(=O)c3ccc(C)cc3)=C(O)C(=O)N2CCCn2ccnc2)c(OC)c1 (centres unmarked)	0.487
O=C(C1=C(O)C(=O)N(Cc2ccco2)C1c1cccc(O)c1)c1ccc2c(c1)OCCO2 (centres unmarked)	-9.82
COc1cccc(NC(=O)c2ccc(OC(F)F)cc2)c1	-3.69
COC(=O)c1ccc(C2c3c(oc4ccccc4c3=O)C(=O)N2c2nncs2)cc1 (centres unmarked)	5.3
CC(C)c1cccc(C(C)C)c1NC(=O)Cn1cnc2ccccc2c1=O	-5.67
COC(=O)c1cc2sccc2n1CC(=O)Cc1ccc(OC)cc1OC	-6.95
N#CC1=C(N)OC2=C(C(=O)CC(c3ccccc3)C2)C1c1cccc(Cl)c1Cl (centres unmarked)	27.9
Cc1cc(C)c2[nH]c(C)c(CCN)c2c1	-3.04
